Data as given in paper PMC4336329 (PLoS ONE, 2015).
Among all 310,000 compounds or so, about 14,000 (4.5%) showed an effect of 50% or more. Effects have a minus sign here. Some of the results follow.

Molecular target: human ether-à-go-go-related gene (hERG) potassium channel (human, UniProt Q12809)
Assay: primary screen, population patch clamp on CHO cells stably expressing hERG
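Note: peak tail current of the secondary pulse compared with the same well before compound.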

Sequence of human ether-à-go-go-related gene (hERG) potassium channel (Q12809 whole entry, looked up): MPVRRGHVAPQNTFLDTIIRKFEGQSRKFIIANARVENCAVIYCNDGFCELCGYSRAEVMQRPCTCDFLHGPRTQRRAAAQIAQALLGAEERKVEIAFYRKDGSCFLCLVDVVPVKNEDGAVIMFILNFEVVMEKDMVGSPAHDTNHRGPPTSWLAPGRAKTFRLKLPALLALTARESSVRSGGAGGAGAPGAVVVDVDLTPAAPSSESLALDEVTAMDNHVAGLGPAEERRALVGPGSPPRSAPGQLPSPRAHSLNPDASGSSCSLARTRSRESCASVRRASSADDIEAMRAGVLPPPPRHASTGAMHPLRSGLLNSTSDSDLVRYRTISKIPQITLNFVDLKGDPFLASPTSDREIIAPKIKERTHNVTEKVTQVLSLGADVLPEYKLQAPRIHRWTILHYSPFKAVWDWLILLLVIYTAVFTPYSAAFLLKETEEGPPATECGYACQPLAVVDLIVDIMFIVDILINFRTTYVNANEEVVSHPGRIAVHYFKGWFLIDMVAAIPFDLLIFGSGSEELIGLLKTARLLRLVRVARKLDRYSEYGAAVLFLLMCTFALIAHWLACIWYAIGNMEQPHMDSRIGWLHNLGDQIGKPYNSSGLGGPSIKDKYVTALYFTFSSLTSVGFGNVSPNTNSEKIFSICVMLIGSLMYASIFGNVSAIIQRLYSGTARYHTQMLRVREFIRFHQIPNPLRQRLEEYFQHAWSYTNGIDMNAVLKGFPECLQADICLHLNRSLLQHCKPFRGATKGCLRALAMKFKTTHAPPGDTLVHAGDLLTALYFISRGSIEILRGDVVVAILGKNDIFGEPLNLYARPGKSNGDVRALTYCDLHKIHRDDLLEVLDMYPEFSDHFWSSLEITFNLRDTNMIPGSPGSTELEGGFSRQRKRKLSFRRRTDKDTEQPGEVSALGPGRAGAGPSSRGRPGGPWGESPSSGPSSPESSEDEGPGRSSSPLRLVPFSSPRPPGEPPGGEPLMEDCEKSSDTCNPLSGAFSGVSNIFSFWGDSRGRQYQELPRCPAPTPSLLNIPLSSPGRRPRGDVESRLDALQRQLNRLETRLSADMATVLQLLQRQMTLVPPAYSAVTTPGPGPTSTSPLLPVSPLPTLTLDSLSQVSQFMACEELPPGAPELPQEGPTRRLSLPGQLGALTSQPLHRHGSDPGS

| SMILES | hERG current change (%, negative = inhibition) at 10uM [%] |
| --- | --- |
| CCOC(=O)n1c(=O)n(C)c2ccc(Cl)cc21 | 11.1 |
| COc1ccc(CCNc2ncnc3c2c(C)c(C)n3CCO)cc1OC | 7.98 |
| O=C(CCCNS(=O)(=O)c1ccccc1)NCc1ccco1 | -11.7 |
| O=C(Nc1ccccn1)c1sc2cccc(F)c2c1Cl | 16.4 |
| CC(=O)Nc1ccccc1NC(=O)C/C(C)=N/NC(=O)C(=O)N1CCCCC1 | -13.3 |
| Cc1ccc(-c2cc3nc(C)cc(C)n3n2)cc1 | 14.8 |
| COc1ccc(C(=O)NC2(C(F)(F)F)C(=O)Nc3c2c(=O)[nH]c(=O)n3CCc2ccc(OC)c(OC)c2)cc1 (stereo not drawn) | -1.07 |
| Cc1[nH]n(-c2ccccc2)c(=O)c1N=Nc1cccc(Cl)c1 | 19.5 |
| CCCNC(=O)Nc1cccc(NC(C)=O)c1 | 16.8 |
| O=C(COC(=O)c1ccccc1-c1nc2ccccc2s1)Nc1ccccc1C(F)(F)F | 2.21 |
| CC(OC(=O)c1cccnc1)C(=O)NCc1ccc2c(c1)OCO2 (stereo not drawn) | -5.26 |
| O=C(CN1CCN(C(=O)c2cccc(S(=O)(=O)N3CCCC3)c2)CC1)Nc1ccc(F)cc1 | -61.7 |
| Cc1cc(C)cc(-n2ncc3c2CCCC3NC(=O)c2cc(C)oc2C)c1 (stereo not drawn) | 4 |
| CCN(CC)C(=O)CSc1nc(C)cc(C)c1C#N | 22.9 |
| Oc1ccc(Cl)cc1C=NCCc1ccccc1 | 3.36 |
| CCc1cc2c(SCC(=O)N3CCCC3=O)ncnc2s1 | -30.3 |
| O=C(O)C(=O)O.O=[N+]([O-])c1ccccc1OCCNCc1ccccc1 | -25.1 |
| COc1ccccc1-c1nc2s/c(=C\c3cccs3)c(=O)n2n1 | -0.129 |
| CC(C)(C)c1nnc(NC(=O)C2c3ccccc3Oc3ccccc32)s1 | 10.7 |
| Cc1cc(NC(=O)CSc2nncn2-c2ccccc2)no1 | 36.1 |
| Cc1ccc(C(=O)OCC(=O)NCc2cccs2)cc1 | 5.47 |
| O=C(NCc1cccc(C(F)(F)F)c1)c1cc(-c2ccccc2)nn1CC1CC(c2cccnc2)=NO1 (stereo not drawn) | -52.4 |
| CCOC(=O)C1CCN(C(=O)COc2ccc(Cl)cc2Cl)CC1 | -40.7 |

| SMILES | hERG current change (%, negative = inhibition) at 10uM [%] |
| --- | --- |
| O=C(CSc1nnc(-c2ccncc2)o1)Nc1ccccc1C(F)(F)F | -0.412 |
| Cc1ccc(CN2C(=O)CCC2C(=O)N2CCN(c3ccccc3)CC2)cc1 (stereo not drawn) | -14.2 |
| NS(=O)(=O)c1ccc(NC(=S)N2CCN(c3ccccc3Cl)CC2)cc1 | 18.8 |
| CC(=O)NC12CC3CC(C1)CC(C(=O)N1CCN(S(=O)(=O)c4cccs4)CC1)(C3)C2 | -12.4 |
| Nc1ncc(-c2ccc([N+](=O)[O-])cc2)cn1 | -4.71 |
| O=C(NCc1n[nH]c(=S)n1-c1ccc(Br)cc1)c1cccs1 | 19.7 |
| C=CCn1c(SCc2ccccc2)nc(O)cc1=O | -14.6 |
| c1ccc(-c2oc3ncnc(NCCCn4ccnc4)c3c2-c2ccccc2)cc1 | -69.9 |
| CN(c1ccccc1)S(=O)(=O)c1cccc(C(=O)NNC(=O)c2ccncc2)c1 | -43 |
| CCCn1nnnc1SCC(=O)c1ccc(NC(C)=O)cc1 | 10.3 |
| CCN(CC)c1ccc(/C=N/Nc2nc3ccccc3[nH]2)c(O)c1 | 3.28 |
| CCSc1nnc(NC(=O)Cc2ccc(OC)c(OC)c2)s1 | -4.78 |
| O=S(=O)(/N=C/c1c(O)ccc2ccccc12)c1ccccc1 | 12.6 |
| O=C(Nc1cccc(C(F)(F)F)c1)c1cccc(NS(=O)(=O)c2ccc(Br)c(C(=O)O)c2)c1 | 7.18 |
| Cc1c(N2C(=O)/C(=C\c3ccc(N(C)C)cc3)N(C)C2=S)c(=O)n(-c2ccccc2)n1C | -11.4 |
| COc1cc(NS(=O)(=O)c2cn(C)cn2)cc(OC)c1OC | 10.2 |
| CN1/C(=C/C2CC(=O)NC2=O)C(C)(C)c2ccccc21 (stereo not drawn) | 3.26 |
| CN(C)c1ccc([P+](=O)c2ccc(N(C)C)cc2)cc1 | 9.37 |
| Cc1cccc(C)c1NC(=O)CNC(=O)C(C)NC(C)c1ccccc1Br (stereo not drawn) | -0.824 |
| COc1ccc(C(=O)NC(=S)N(CCC(C)C)c2c(N)n(Cc3ccccc3)c(=O)[nH]c2=O)cc1 | -5.8 |
| Cc1ccc(C(=O)NCCCN2CCOCC2)c(Cl)c1 | 13 |
| CCCN1CCc2c(sc(NC(=S)NC(=O)c3ccccc3)c2C#N)C1 | 3.65 |
| Cc1ccc(-c2csc(SCC(=O)Nc3cc(C)on3)n2)cc1 | -5.66 |

| SMILES | hERG current change (%, negative = inhibition) at 10uM [%] |
| --- | --- |
| Cc1ccc(-n2c(SCC(=O)Nc3ccc4c(c3)OCCO4)nnc2-c2ccco2)cc1 | -30.9 |
| N#Cc1cn(Cc2ccccc2)c(=O)[nH]c1=O | 18.3 |
| COc1ccc2oc(=N)c(C(=O)Nc3ccc(Cl)cc3)cc2c1 | 9.18 |
| COc1ccccc1CCC(=O)OCC(=O)Nc1cccc(S(=O)(=O)N2CCOCC2)c1 | -37.6 |
| CC1(C)CC(NCCC(c2ccccc2)c2ccco2)CCO1 (stereo not drawn) | -52.5 |
| O=C(COc1cccc(F)c1)NNC(=O)Cc1ccc(Br)cc1 | 7.61 |
| CC(C)Cc1cc(C(=O)Nc2sc3c(c2C#N)CCC3)no1 | 5.42 |
| CC1(C)CC(=O)c2cnc(N)nc2C1 | 5.2 |
| Cc1ccccc1-c1nc(CS(=O)(=O)CC(=O)NC(C)c2ccccc2)c(C)o1 (stereo not drawn) | -8.68 |
| Cc1ccc2c(c1)nnn2C1CCN(S(=O)(=O)c2ccc(C(=O)N(C)C)cc2)CC1 | -48 |
| C/C(=N\NC(N)=S)C1=CCC2C3CC[C@H]4CC(O)CC[C@]4(C)C3CC[C@]12C (stereo partly drawn) | 13.6 |
| CCOCCCNC(=O)c1ccccc1SCC | 6.98 |
| Cc1cc(C)nc(NCc2ccc(Cl)cc2)n1.Cl | 8.68 |
| Cc1ccc(NC(NC(=O)c2cccnc2)C(Cl)(Cl)Cl)cc1 (stereo not drawn) | -8.26 |
| O=C1CC(=O)N(c2cccc(F)c2)C(=O)N1 | 16.1 |
| CNc1nc2c(N)ncnc2n1[C@H]1O[C@@H](CO)[C@H](O)[C@@H]1O | 24.3 |
| CC(C)CN=CC1=C(O)c2ccccc2C1=O | -71.4 |
| CN1CCc2c(c3ccccc3n2Cc2ccccc2)C1.Cl | -71.2 |
| COc1cnc(SC(C)C)[nH]c1=O | 19.8 |
| CCn1c(=O)c([N+](=O)[O-])c(NCCc2ccc(OC)c(OC)c2)c2ccccc21 | -10.5 |
| CCCSc1nn2c(=O)c3ccccc3nc2s1 | -22.3 |
| CC(=O)N1N=C(c2ccc(Cl)cc2)OC12CCCC2 | -7.66 |
| CCN(CC)C(=O)C(C)N(C#N)c1nc(SC)nc(N(C)C)n1 (stereo not drawn) | -31.7 |

| SMILES | hERG current change (%, negative = inhibition) at 10uM [%] |
| --- | --- |
| Cc1cccc(CN2CCC(Oc3ccc(C(=O)N4CCCCC4)cc3)CC2)c1 | -21.9 |
| O=C(CSc1nnc(NC(=O)C2CC2)s1)Nc1ccc(F)cc1 | 12.5 |
| COC(=O)CCc1sc(Nc2ccccc2)nc1-c1ccc(OC)cc1 | 10.7 |
| CSc1nc2ccccc2cc1/C=C(\C#N)c1ccc(Cl)c(Cl)c1 | 12.7 |
| O=C(c1ccco1)N1CCN(S(=O)(=O)c2cccc(Cl)c2)CC1 | -16 |
| COC(=O)c1ccc(-c2ccco2)n1Cc1cccc(C)c1 | 7.3 |
| Cc1ccc(-c2noc(CCCC(=O)NC3CCCCC3)n2)cc1 | 3.58 |
| COc1cccc(-c2csc3nnc(SCC(=O)NCc4cccs4)n23)c1 | -1.65 |
| COc1ccc(CCNC(=O)C2CCCN(S(=O)(=O)c3ccc(OC)cc3)C2)cc1 (stereo not drawn) | -25.9 |
| CCOC(=O)N1CCC(N(CCN(C)C)C(=S)Nc2cc(Cl)ccc2C)CC1 | -6.45 |
| Oc1ccccc1-c1nnc2n1CCCCC2 | 12.5 |
| COc1ccc(NC(=O)C2(S(=O)(=O)c3ccc(C)cc3)CC2)cc1 | -2.65 |
| CC(=O)Nc1ccc(NC(=O)CCN2C(=O)C3CC=CCC3C2=O)cc1 (stereo not drawn) | 3.53 |
| CC(C)[C@H](N)C(=O)OCCOCn1cnc2c(=O)[nH]c(N)nc21.Cl | -0.835 |
| COc1ccc(-n2ncc3c2CC(C)(C)CC3NC(=O)c2cnc(C)cn2)cc1 (stereo not drawn) | -4.41 |
| CN(Cc1ccccc1)S(=O)(=O)c1ccc(N2CCCC2=O)cc1 | -12.7 |
| CCOc1cc(/C=C2\N=C(SC)SC2=O)cc([N+](=O)[O-])c1OC(C)=O | 1.02 |
| Cc1cc(NC(=O)CSc2nc3c(cc2C#N)CCCCC3)no1 | 33.6 |
| O=[N+]([O-])c1ccc(N/N=C\c2cccn2-c2ccccc2)nc1 | 4.86 |
| CC[C@@]12C(=O)N(c3ccccc3)C(=O)N1[C@H](c1ccc(OC)cc1)[C@@H]1C(=O)N(C(C)(C)C)C(=O)[C@@H]12 | 24.2 |
| O=C(OCN1C(=O)c2ccccc2C1=O)/C(=C\c1ccco1)NC(=O)c1ccccc1 | -16.5 |
